Results from PubChem BioAssay AID504466 (National Center for Advancing Translational Sciences (NCATS), 2011).
Among all 330,000 compounds or so, about 4,200 (1.3%) were called active. This list was built around the results that the source calls inconclusive (neither active nor inactive); the mix of calls is not that of the screen. Calls come from the whole dose curve; as a rule, active = well fitted activation curve with a large enough effect; inconclusive = small, poorly fitted or top-dose-only effect; inactive = no such curve, though single readings can be large or run the other way. Potencies of inconclusive entries are doubtful fits and often do not repeat.

Test: qHTS screen for small molecules that induce genotoxicity in human embryonic kidney (HEK293T) cells expressing luciferase-tagged ELG1; note: nearly all actives have a fitted effect of over 60% in size; for activity change, positive = activation: % of control where 0% means no effect
Conditions: HEK293T ELG1-luciferase reporter, luminescence, 16 h; series mostly up to 46 µM; activity change, positive = activation: at the top concentration
In short: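 After overnight (16 hr) compound treatment at 37 °C, ELG1-luciferase HEK293T cells were lysed with ONE-Glo; luminescence quantified 30 min later at room temperature.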
Potency is the fitted concentration of half-maximal effect; tags give direction and shape of the fitted curve.

Row | Structure (SMILES) | Potency | activity change, positive = activation
1 | CCn1cnc2cc(NC(=O)c3ccc(C)cc3)ccc21 | inconclusive: 7.3 µM [activator, partial curve] | 
2 | COc1cccc(CNC(=O)Cn2cc3c(n2)CCCC3)c1 | inconclusive: 29.1 µM [activator, partial curve, poor fit] | 
3 | Cc1cc(C)c(C#N)c(Sc2ccccc2N)n1 | inconclusive: 11.6 µM [activator, partial curve, poor fit] | 
4 | Cc1cc(NC(=O)C(C)SCC(=O)N(C)CC(=O)Nc2ccc(F)cc2)no1 (stereo not given) |  | inactive: 0.341%
5 | CCOC(=O)c1ccc(NC(=O)Nc2ccccn2)cc1 | inconclusive: 2.06 µM [activator, full curve, poor fit] | 
6 | CCOCCn1cnc2sc(C(=O)NCC(=O)OCC)c(C)c2c1=O | inconclusive: 23.1 µM [activator, partial curve, poor fit] | 
7 | CCN1C(=O)/C(=C/c2cnn(C)c2C)SC1=S |  | inactive: -0.531%
8 | CC(C)(C)C(=O)CC(=O)Nc1ccc(Cl)c(N)c1 | inconclusive: 16.4 µM [activator, single point] | 
9 | CCOc1ccc(NC(C(=O)Nc2cccc(C(C)=O)c2)c2ccccc2)cc1 (stereo not given) |  | inactive: -0.709%
10 | Cc1cc(C)c(C(=O)N2CCCC(CNC(=O)C3(c4ccc(Cl)cc4)CC3)C2)c(=O)[nH]1 (stereo not given) |  | inactive: 0.792%
11 | N/C(=N\OC(=O)/C=C/c1ccccc1Cl)c1ccccn1 | inconclusive: 0.411 µM [activator, partial curve, poor fit] | 
12 | C=CCS/C(N)=N\N=C\c1c(O)ccc2ccccc12 | inconclusive: 5.8 µM [activator, partial curve, poor fit] | 
13 | c1cn2cc(CSC3CCCCC3)nc2s1 | active: 2.31 µM | 
14 | COc1ccc(NC(=O)Cn2c3ccccc3c3nc4n(c(=O)c32)CCS4)cc1OC | inconclusive: 18.3 µM [activator, partial curve, poor fit] | 
15 | Cc1ccc(CC(=O)O/N=C(\N)c2ccccn2)cc1 | inconclusive: 23.1 µM [activator, partial curve] | 
16 | COc1cccc(OC)c1C(=O)NC(=S)Nc1ccc2c(c1)OCCO2 | inconclusive: 20.6 µM [activator, single point] | 
17 | CC/C(=N\NC(N)=O)c1ccc(OC)c(OC)c1 | inconclusive: 13 µM [activator, partial curve, poor fit] | 
18 | O=C(Nc1nc2ccccc2[nH]1)c1cccc(Cl)c1 | active: 16.4 µM | 
19 | Cc1nc2ccc(NC(=O)c3cc(Cl)ccn3)cc2s1 | active: 1.3 µM | 
20 | CC1=NNC(=O)/C1=C\c1cn(-c2ccccc2)nc1-c1cccs1 | inconclusive: 6.51 µM [activator, single point] | 
21 | O=C(NCCOC(=O)c1ccc(Cl)c(S(=O)(=O)N2CCCCC2)c1)c1ccncc1 |  | inactive: -0.603%
22 | CCCNC(=O)OCCC12CC3CC(CC(C3)C1)C2 | inconclusive: 18.4 µM [activator, partial curve, poor fit] | 
23 | Cc1ccc(-n2nnnc2SCCNS(=O)(=O)c2ccccc2)cc1C | inconclusive: 23.1 µM [activator, partial curve, poor fit] | 
24 | O=C(Nc1ccc(NC(=O)C2CCCCC2)nc1)c1ccccn1 | inconclusive: 6.51 µM [activator, partial curve, poor fit] | 
25 | COc1ccccc1CN(C)C(=O)c1ccccc1Sc1ccccc1C#N | inconclusive: 29.1 µM [activator, partial curve, poor fit] | 

Row | Structure (SMILES) | Potency | activity change, positive = activation
26 | COc1ccc(-c2csc(N3C(=O)C4C5c6ccccc6C(c6ccccc65)C4C3=O)n2)cc1 (stereo not given) |  | inactive: -0.617%
27 | CN(CCOc1ccc(Cl)cc1)C(=O)c1cc(-c2ccco2)nc2ccccc12 |  | inactive: -45.9%
28 | C=C(C)CSc1nncn1/N=C/c1ccc(OC)cc1 | inconclusive: 18.4 µM [activator, partial curve] | 
29 | Cn1c(=O)n(C)c2cc(NC(=O)CSc3nc4ccccc4c(=O)[nH]3)ccc21 | inconclusive: 16.4 µM [activator, single point] | 
30 | CCCCN1C(=O)/C(=C2\SC(N3CCCCC3)=NC2=O)c2ccccc21 | inconclusive: 4.61 µM [activator, partial curve, poor fit] | 
31 | C/C(=N\NC(=O)CC(C)C)c1ccc(N2CCCCC2)cc1 | inconclusive: 25.9 µM [activator, partial curve, poor fit] | 
32 | Cc1ccc(-n2ncc3c(SCC(N)=O)ncnc32)cc1C | inconclusive: 4.11 µM [activator, full curve] | 
33 | COc1ccccc1-c1nc(C#N)c(N2CCCCCC2)o1 |  | inactive: 3.54%
34 | CN1CCc2c(sc(/N=C/c3cc(Cl)ccc3O)c2C#N)C1 | active: 16.4 µM | 
35 | CCn1cnc2cc(NCc3ccccc3Cl)ccc21 | inconclusive: 18.3 µM [activator, partial curve, poor fit] | 
36 | COc1ccc(NC(=O)c2cccc(OC(F)F)c2)cc1Cl | active: 5.8 µM | 
37 | COc1ccc(Cl)cc1NC(=O)CC(C)c1ccccc1 (stereo not given) |  | inactive: 0.249%
38 | O=C(C1CCN(C2CCN(CC3CC=CCC3)CC2)CC1)N1CCOCC1 (stereo not given) |  | inactive: -0.399%
39 | Cc1cc(Cl)n2ncc(-c3ccccc3)c2n1 | inconclusive: 20.6 µM [activator, partial curve, poor fit] | 
40 | COc1ccc(/C=C/C=C2\N=C(SC)SC2=O)cc1 |  | inactive: 1.87%
41 | O=c1c2c(nc3n1CCCCC3)sc1c(O)c(Br)ccc12 | active: 2.31 µM | 
42 | COc1ccc(/C=N\NC(=O)COc2ccccc2Cl)cc1Cn1nc(C)cc1C |  | inactive: -1.93%
43 | O=C(Nc1ccc(Cl)cc1)c1ccc(OCC2CCCO2)cc1 (stereo not given) | inconclusive: 4.11 µM [activator, full curve, poor fit] | 
44 | Cc1cccc(Nc2nc(-c3ccc4c(c3)OCCO4)cs2)c1 | active: 2.31 µM | 
45 | Brc1ccc(/C=N/Nc2nc3ccccc3o2)cc1 | inconclusive: 8.2 µM [activator, partial curve] | 
46 | COC(=O)Cc1c(C)c2ccc(OCC(C)=O)c(C)c2oc1=O | active: 9.2 µM | 
47 | Cc1nonc1OCCCNc1ccc([N+](=O)[O-])cc1Cl |  | inactive: -6.92%
48 | Cc1cc(/C=C(/C#N)c2nc3ccccc3[nH]2)c(C)n1-c1cc(C(=O)O)cc(C(=O)O)c1 |  | inactive: -1.64%
49 | COc1ccccc1C(=O)Nc1ccc(C(=O)/C=C/c2cccs2)cc1 |  | inactive: 0.933%
50 | COc1cc(/C=N/OCC(=O)NC23CC4CC(CC(C4)C2)C3)ccc1OCc1ccccc1 |  | inactive: 11.1%

Row | Structure (SMILES) | Potency | activity change, positive = activation
51 | O=C(NCC1CCCO1)c1sc2cc(Cl)ccc2c1Cl (stereo not given) | inconclusive: 7.31 µM [activator, partial curve] | 
52 | Nc1ccc(N=Nc2ccc(N)cc2)cc1 | inconclusive: 16.4 µM [activator, partial curve] | 
53 | COc1ccc2cnn(CCOc3ccccc3)c(=O)c2c1OC | inconclusive: 1.64 µM [activator, full curve] | 
54 | COc1ccc2oc(=N)c(C(=O)Nc3cccc(C)c3C)cc2c1 | inconclusive: 5.17 µM [activator, full curve] | 
55 | CCCOc1ccc(C(=O)NCCc2ccccc2)cc1 | inconclusive: 0.92 µM [activator, partial curve] | 
56 | c1nc(C2CCCCC2)cc2cc3c(cc12)OCO3 | inconclusive: 18.3 µM [activator, partial curve, poor fit] | 
57 | O=C(Nc1ccccc1)C1Cc2ccccc2CN1C(=O)c1ccco1 (stereo not given) |  | inactive: 16.5%
58 | CN(C)C(CNC(=O)C1CCN(C(=O)/C=C/c2ccccc2)CC1)c1ccccc1 (stereo not given) | inconclusive: 11.2 µM [activator, partial curve] | 
59 | Nc1c(-c2ccccc2)cnc2cc(-c3ccccc3)nn12 | active: 2.59 µM | 
60 | CCN1CCCC1CNC(=O)c1ccc2c(c1)NC(=O)/C(=C\c1ccc(OC)c(OC)c1)S2 (stereo not given) | inconclusive: 23.1 µM [activator, partial curve, poor fit] | 
61 | Cc1ccc(C)n1-c1ccc(N(C)C)cc1 | inconclusive: 29.1 µM [activator, single point] | 
62 | Cc1cc(-c2nc(-c3ccncc3)no2)ccc1[N+](=O)[O-] | inconclusive: 16.4 µM [activator, partial curve] | 
63 | Cc1ccccc1/C(N)=N/OC(=O)c1ccc(F)cc1 | inconclusive: 20.6 µM [activator, single point] | 
64 | CC(C)Oc1ccc(-c2nn(-c3ccccc3)cc2/C=c2\sc3ncnn3c2=O)cc1 |  | inactive: 0.0151%
65 | OC(CNc1nc2ccccc2s1)c1ccccc1 (stereo not given) | inconclusive: 15.8 µM [activator, single point] | 
66 | Cc1ccccc1NC(=O)Cc1nnc(NC(=O)Nc2ccccc2F)s1 | inconclusive: 18.3 µM [activator, single point] | 
67 | Cc1cc(=O)n2[nH]c(-c3ccc(C(C)(C)C)cc3)cc2n1 | inactive | 
68 | FC(F)Sc1ccc(-n2c(-c3ccc(Cl)cc3)c[n+]3c2CCC3)cc1 |  | inactive: -5.99%
69 | CN(Cc1cccc(Cl)c1Cl)C(=O)c1cc(S(=O)(=O)N2CCOCC2)ccc1F |  | inactive: -5.81%
70 | COC(=O)c1cc(NC(=O)c2cccc(C(F)(F)F)c2)c(=O)oc1C/C=N/OCc1cccc(Cl)c1Cl |  | inactive: 0.603%
71 | CC(C)c1ccc(C(C)NC(=O)C2CCCC2)cc1 (stereo not given) |  | inactive: 0.976%
72 | CCOc1ccc(C(=O)NC(=S)Nc2cccc(S(=O)(=O)NC3=NCCC3)c2)cc1 | inconclusive: 32.6 µM [activator, partial curve, poor fit] | 
73 | O=C(Nc1ccc(NC(=O)c2ccccc2F)cn1)c1ccco1 | inconclusive: 3.16 µM [activator, partial curve, poor fit] | 
74 | O=C(Nc1ccc(F)c(Cl)c1)NC1CC1 |  | inactive: -0.418%
75 | O=C(Cc1ccc2c(c1)CCCC2)Nc1ccc2ccccc2c1 | inconclusive: 29.1 µM [activator, single point] | 
